One test concerns the target GST-tagged eEF1A1 (rat) (UniProt P62630). Nature of the test: pull-down; GST or GST-eEF1A1 on glutathione agarose beads, TIP30-His full length and deletion mutants, 2 h at 4°C, Western blot.
Test [1] concerns the target endogenous eEF1A1 of neonatal rat cardiomyocytes (rat (endogenous in neonatal rat cardiomyocytes)) (UniProt P62630). Nature of the test: proximity ligation; Duolink in situ, unstimulated NRCM; anti-eEF1A1 and anti-eEF1B2.
The target is the same in test [2]. Kind of test: proximity ligation; Duolink in situ, NRCM transduced with Ad.Con or Ad.TIP30, stimulated with phenylephrine; anti-eEF1A1 and anti-eEF1B2.
Test [3] deals with eEF1A1-Myc expressed by adenovirus (Ad.eEF1A1-Myc) in neonatal rat cardiomyocytes (rat) (UniProt P62630). Kind of test: co-IP; anti-Myc immunoprecipitation in PE-stimulated NRCM co-transduced with Ad.eEF1A1-Myc and Ad.con or Ad.TIP30; endogenous eEF1B2 detected.
The target of test [4] is eEF1A1-Myc expressed in HEK cells (rat) (UniProt P62630). Nature of the test: co-IP; HEK cells transfected with GST-TIP30 and eEF1A1-Myc; crosslinking with 0.5% PFA, lysis in 20 mM HEPES pH 7.6, 75 mM NaCl, 0.1% NP-40; Western blot.
Test [5] concerns the target endogenous eEF1A1 of neonatal rat cardiomyocytes (rat (endogenous in neonatal rat cardiomyocytes)) (UniProt P62630). Kind of test: proximity ligation; Duolink in situ, neonatal rat cardiomyocytes, anti-TIP30 and anti-eEF1A1; control anti-TIP30 and anti-Myc.
Test [6] has the same target. Nature of the test: co-IP; endogenous proteins in NRCM after stimulation with phenylephrine for 24 h; crosslinking with 0.5% PFA, 20 mM HEPES pH 7.6, 75 mM NaCl, 0.1% NP-40.

Protein sequences, listed by entry. Tags and fused reporters are not part of them.
UniProt P62630: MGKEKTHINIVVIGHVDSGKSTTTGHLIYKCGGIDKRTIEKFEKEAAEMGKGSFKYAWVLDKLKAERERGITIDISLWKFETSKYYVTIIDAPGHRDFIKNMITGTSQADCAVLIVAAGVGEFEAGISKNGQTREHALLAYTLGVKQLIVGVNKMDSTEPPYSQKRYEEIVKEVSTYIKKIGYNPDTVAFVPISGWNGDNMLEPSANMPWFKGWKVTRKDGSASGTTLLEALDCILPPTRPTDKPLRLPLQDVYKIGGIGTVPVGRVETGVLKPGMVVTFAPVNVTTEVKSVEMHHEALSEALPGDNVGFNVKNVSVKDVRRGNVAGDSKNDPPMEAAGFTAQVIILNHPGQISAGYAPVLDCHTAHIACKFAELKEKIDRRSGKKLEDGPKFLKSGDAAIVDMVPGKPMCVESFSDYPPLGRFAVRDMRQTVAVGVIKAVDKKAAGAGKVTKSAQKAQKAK

Results are given in words; binding and its absence hold for the method and conditions named. Binding seen in cells or lysates may run through a third protein. Some binding calls cover weakened binding; strength is not graded here. For some of these results: Where a sequence is shown, tags or fusion partners need not be part of it.

B1: TIP30-ΔN52-His (domain or fragment, UniProt B0BNF8 53-242)
chain: RKLTFEEEAYNNVNQEVVDFEKLDEYAPAFQGHDVGFCCLGTTRRKAGADGFVRVDRDYVLKSAELAKAGGCKHFNLLSSRGADKSSSFLYLQVKGEVEAKVEELKFDRLSVFRPGVLLCDRQESRPGEWLARKFFGSLPDSWASGYAVPVVTVVRAMLNNLVSPGSGQMELLENKAILHLGKDSDGPKL
On to B1, for which, in the test with GST-tagged eEF1A1 (rat), the binding result was “no binding”.

B2: endogenous eEF1B2 of neonatal rat cardiomyocytes (protein, UniProt A6IPG1 1-225)
chain: MGFGDLKTPAGLQVLNDYLADKSYIEGYVPSQADVAVFEAISGPPPADLCHALRWYNHIKSYEKEKASLPGVKKSLGKYGPVSVADTTGSGAADAKDDDDIDLFGSDDEEESEDAKRLREERLAQYESKKAKKPAVVAKSSILLDVKPWDDETDMTKLEECVRSIQADGLVWGSSKLVPVGYGIKKLQIQCVVEDDKVGTDMLEEQITAFEDYVQSMDVAAFNKI
For the molecule B2, the binding result is listed as “binds weakly” in test [1], “binds” in test [2] and “binds” in test [3].

B3: GST-tagged TIP30 full-length protein expressed in HEK cells (protein, UniProt B0BNF8 1-242)
chain: MADKETLLKLREDFKMQNKSVFILGASGETGKVLLKEILGQNLFSKVTLIGRRKLTFEEEAYNNVNQEVVDFEKLDEYAPAFQGHDVGFCCLGTTRRKAGADGFVRVDRDYVLKSAELAKAGGCKHFNLLSSRGADKSSSFLYLQVKGEVEAKVEELKFDRLSVFRPGVLLCDRQESRPGEWLARKFFGSLPDSWASGYAVPVVTVVRAMLNNLVSPGSGQMELLENKAILHLGKDSDGPKL
Turning to B3, the binding entry in test [4] was “binds”.

B4: endogenous TIP30 of neonatal rat cardiomyocytes (protein, UniProt B0BNF8 1-242)
chain: MADKETLLKLREDFKMQNKSVFILGASGETGKVLLKEILGQNLFSKVTLIGRRKLTFEEEAYNNVNQEVVDFEKLDEYAPAFQGHDVGFCCLGTTRRKAGADGFVRVDRDYVLKSAELAKAGGCKHFNLLSSRGADKSSSFLYLQVKGEVEAKVEELKFDRLSVFRPGVLLCDRQESRPGEWLARKFFGSLPDSWASGYAVPVVTVVRAMLNNLVSPGSGQMELLENKAILHLGKDSDGPKL
On to B4, for which the binding result in test [5] and in test [6] was “binds” each time.

B5: TIP30-His full-length protein (protein, UniProt B0BNF8 1-242)
chain: MADKETLLKLREDFKMQNKSVFILGASGETGKVLLKEILGQNLFSKVTLIGRRKLTFEEEAYNNVNQEVVDFEKLDEYAPAFQGHDVGFCCLGTTRRKAGADGFVRVDRDYVLKSAELAKAGGCKHFNLLSSRGADKSSSFLYLQVKGEVEAKVEELKFDRLSVFRPGVLLCDRQESRPGEWLARKFFGSLPDSWASGYAVPVVTVVRAMLNNLVSPGSGQMELLENKAILHLGKDSDGPKL
Take B5: the binding result with GST-tagged eEF1A1 (rat) was “binds”.

B6: TIP30 overexpressed by adenovirus (Ad.TIP30) in neonatal rat cardiomyocytes (protein, UniProt B0BNF8 1-242)
chain: MADKETLLKLREDFKMQNKSVFILGASGETGKVLLKEILGQNLFSKVTLIGRRKLTFEEEAYNNVNQEVVDFEKLDEYAPAFQGHDVGFCCLGTTRRKAGADGFVRVDRDYVLKSAELAKAGGCKHFNLLSSRGADKSSSFLYLQVKGEVEAKVEELKFDRLSVFRPGVLLCDRQESRPGEWLARKFFGSLPDSWASGYAVPVVTVVRAMLNNLVSPGSGQMELLENKAILHLGKDSDGPKL
For B6, the binding entry in test [2] and in test [3] was “binds” in each case.

Source of the values: article PMC6783653.
